The other results are listed elsewhere or left out. Sequences were assembled here from the parent chain. Inactive controls read about 0.05.

Experimental findings from the supplement of paper PMC12217912 are described below.

The labels stand for the following.
B1: TEV protease; numbered along this chain (parent)
chain: MGESLFKGPRDYNPISSSICHLTNESDGHTTSLYGIGFGPFIITNKHLFRRNNGTLVVQSLHGVFKVKDTTTLQQHLVDGRDMIIIRMPKDFPPFPQKLKFREPQREERICLVTTNFQTKSMSSMVSDTSCTFPSGDGIFWKHWIQTKDGQCGSPLVSTRDGFIVGIHSASNFTNTNNYFTSVPKNFMELLTNQEAQQWVSGWRLNADSVLWGGHKVFMVKPEEPFQPVKEATQL

Variants of B1 are the subject of this experiment. Nature of the experiment: raw area under fraction-flipped curve 0-4 h after induction (AUC4h, not background-subtracted), DNA-recorder readout of cleavage of the substrate (dimensionless); higher = more cleavage of the substrate by the protease variant. The conditions noted are these: temperature: 34 °C; time window: 0-4 h after rhamnose induction. The method, then:
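In vivo DNA recorder in E. coli TOP10(DE3) ΔrhaA at 34 °C. Each TEVp single-site mutant (parent TEVp 0) is paired with a single-site variant of the 7-mer TEVs (canonical ENLYFQ|S). The substrate sits between flexible linkers in a Bxb1-sfGFP-TEVs-SsrA fusion, so cleavage stabilises Bxb1 and speeds flipping of a recombination array, read by NGS. The value is the raw area under the fraction-flipped curve over 0-4 h after rhamnose induction (AUC4h), with ≥20 reads per time point. It is not background-subtracted; inactive controls average about 0.047.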
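Also: Bxb1 expression induced with 0.2% (w/v) L-rhamnose at OD600 near 0.5, cultures sampled hourly, flipped fraction per protease–substrate barcode pair counted by paired-end Illumina sequencing.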

As for MGESLFKGPRDYNPISSSICHLTNESDGHTTSLYGIGFGPFIITNKHLFRRNNGTLVVQSLHGVFKVKDTTTLQQHLVDGRDMIIIRMPKDFPPFPQKLKFREPQREERICLVTTNFQTKSMSSMVSDTSCTFPSGDGIFWKHWIQTKDGQTGSPLVSTRDGFIVGIHSASNFTNTNNYFTSVPKNFMELLTNQEAQQWVSGWRLNADSVLWGGHKVFMVKPEEPFQPVKEATQL [C152T], the “area with substrate ENLYFQC” value came to 0.0451, the “area with substrate ENLYFQF” value stood at 0.051, the “area with substrate ENLYFQH” value was determined as 0.0615 and the “area with substrate ENLYFQI” value was 0.0593. Further, the “area with substrate ENLYFQK” value stood at 0.0563, the “area with substrate ENLYFQM” value turned out to be 0.0479, the “area with substrate ENLYFQN” value is 0.0489 and the “area with substrate ENLYFQR” value turned out to be 0.056. The “area with substrate ENLYFQS” value was 0.0618, the “area with substrate ENLYFQT” value was 0.0549, the “area with substrate ENLYFQV” value is 0.066 and the “area with substrate ENLYFQW” value worked out at 0.0585. The “area with substrate ENLYFQY” value came to 0.06.

On to MGESLFKGPRDYNPISSSICHLTNESDGHTTSLYGIGFGPFIITNKHLFRRNNGTLVVQSLHGVFKVKDTTTLQQHLVDGRDMIIIRMPKDFPPFPQKLKFREPQREERICLVTTNFQTKSMSSMVSDTSCTFPSGPGIFWKHWIQTKDGQCGSPLVSTRDGFIVGIHSASNFTNTNNYFTSVPKNFMELLTNQEAQQWVSGWRLNADSVLWGGHKVFMVKPEEPFQPVKEATQL [D137P], for which the “area with substrate ENLYFQC” value stood at 0.114, the “area with substrate ENLYFQD” value was found to be 0.0864, the “area with substrate ENLYFQI” value is 0.0634 and the “area with substrate ENLYFQK” value was found to be 0.0667. Moreover, the “area with substrate ENLYFQP” value was 0.0641, the “area with substrate ENLYFQR” value turned out to be 0.0585, the “area with substrate ENLYFQS” value came to 0.112 and the “area with substrate ENLYFQT” value came to 0.0975.

Consider MGESLFKGPRDYNPISSSICHLTNESDGHTTSLYGIGFGPFIITNKHLFRRNNGTLVVQSLHGVFKVKDTTTLQQHLVDGRDMIIIRMPKDFPPFPQKLKFREPQREERICLVTTNFQTKSMSSMVSDTSCTFPSGDGIFWKHWIQTKDGQCGSPLVSTRDGFIVGIHSASNFTNTYNYFTSVPKNFMELLTNQEAQQWVSGWRLNADSVLWGGHKVFMVKPEEPFQPVKEATQL [N177Y], for which the “area with substrate ENLYFQC” value is 0.085, the “area with substrate ENLYFQH” value stood at 0.0786, the “area with substrate ENLYFQI” value worked out at 0.0497 and the “area with substrate ENLYFQK” value was determined as 0.055. In addition, the “area with substrate ENLYFQM” value worked out at 0.0575, the “area with substrate ENLYFQN” value came out at 0.0536, the “area with substrate ENLYFQR” value worked out at 0.0637 and the “area with substrate ENLYFQS” value was determined as 0.0752. Also, the “area with substrate ENLYFQT” value was found to be 0.0599.

Take MGESLFKGPRDYNPISSSICHLTNESDGHTTSLYGIGFGPFIITNKHLFRRNNGTLVVQSLHGVFKVKDTTTLQQHLVDGRDMIIIRMPKDFPPFPQKLKFYEPQREERICLVTTNFQTKSMSSMVSDTSCTFPSGDGIFWKHWIQTKDGQCGSPLVSTRDGFIVGIHSASNFTNTNNYFTSVPKNFMELLTNQEAQQWVSGWRLNADSVLWGGHKVFMVKPEEPFQPVKEATQL [R102Y]: the “area with substrate ENLYFQC” value was determined as 0.0344, the “area with substrate ENLYFQG” value stood at 0.0458, the “area with substrate ENLYFQI” value amounted to 0.0362 and the “area with substrate ENLYFQR” value is 0.0488. In addition, the “area with substrate ENLYFQS” value worked out at 0.049 and the “area with substrate ENLYFQV” value worked out at 0.0485.

Consider MGESLFKGPRDYNPISSSICHLTNESDGHTTSLYGIGFGPFIITNKHLFRRNNGTLVVQSLHGVFKVKDTTTLQQHLVDGRDMIIIRMPKDFPPFPQKLKFREPQREERICLVTTNFQTKSMSSMVSDTSCTFPSGDGIFWKHWIQTKDGQCGSPLVSTRDGFIVGIHSASNFTNTNNYFTSVPKNFMELLTNQEAQQWVSGWRLNADSVLWGGHCVFMVKPEEPFQPVKEATQL [K216C], for which the “area with substrate ENLYFQC” value was found to be 0.12, the “area with substrate ENLYFQL” value amounted to 0.0564, the “area with substrate ENLYFQM” value was 0.0767 and the “area with substrate ENLYFQQ” value stood at 0.0664. In addition, the “area with substrate ENLYFQS” value came to 0.0953 and the “area with substrate ENLYFQT” value came to 0.0655.

As for MGESLFKGPRDYNPISSSICHLTNESDGHTTSLYGIGFGPFIITNKHLFRRNNGTLVVQSLHGVFKVKDTTTLQQHLVDGRDMIIIRMPKDFPPFPQKLKFREPQREERICLVTTNFQTKSMSSMVSDTSCTFPSGDGIFWKHWIQTKDGQCGSPLVSTRDGFIVGIHSASNFTNTNNYFTSVPKNFMELLTNQEAQQWVSCWRLNADSVLWGGHKVFMVKPEEPFQPVKEATQL [G202C], the “area with substrate ENLYFQC” value was determined as 0.0648, the “area with substrate ENLYFQG” value was 0.0599, the “area with substrate ENLYFQH” value was determined as 0.0656 and the “area with substrate ENLYFQM” value amounted to 0.0463. Moreover, the “area with substrate ENLYFQQ” value was 0.0435, the “area with substrate ENLYFQR” value is 0.055, the “area with substrate ENLYFQS” value stood at 0.0669 and the “area with substrate ENLYFQT” value was determined as 0.0553. For the same variant, the “area with substrate ENLYFQW” value is 0.06.

In the case of MGESLFKGPRDYNPISSSICHLTNESDGHTTSLYGIGFGPFIITNKHLFRRNNGTLVVQSLHGVFKVKDTTTLQQHLVDGRDMIIIRMPKDFPPFPQKLKFREPQREERICLVTTNFQTKSMSSMVSDTSCTFPSGDGIFWKHWIQTKDGQCGSPLVSTRDGFIVGIHSASNFTNTNNYFTSVPKNFMELCTNQEAQQWVSGWRLNADSVLWGGHKVFMVKPEEPFQPVKEATQL [L191C], the “area with substrate ENLYFQC” value is 0.0949, the “area with substrate ENLYFQD” value was 0.0658, the “area with substrate ENLYFQE” value is 0.0674 and the “area with substrate ENLYFQH” value was 0.0697. The “area with substrate ENLYFQI” value was 0.0644, the “area with substrate ENLYFQL” value amounted to 0.0649, the “area with substrate ENLYFQM” value worked out at 0.0931 and the “area with substrate ENLYFQN” value came to 0.0701. The “area with substrate ENLYFQP” value was found to be 0.0511, the “area with substrate ENLYFQR” value amounted to 0.0597, the “area with substrate ENLYFQS” value amounted to 0.0854 and the “area with substrate ENLYFQT” value was 0.046. Also, the “area with substrate ENLYFQV” value was 0.0499.

With MGESLFKGPRDYNPISSSICHLTNESDGHTTSLYGIGFGPFIITLKHLFRRNNGTLVVQSLHGVFKVKDTTTLQQHLVDGRDMIIIRMPKDFPPFPQKLKFREPQREERICLVTTNFQTKSMSSMVSDTSCTFPSGDGIFWKHWIQTKDGQCGSPLVSTRDGFIVGIHSASNFTNTNNYFTSVPKNFMELLTNQEAQQWVSGWRLNADSVLWGGHKVFMVKPEEPFQPVKEATQL [N45L], the “area with substrate ENLYFQC” value was 0.0595, the “area with substrate ENLYFQD” value amounted to 0.0468, the “area with substrate ENLYFQH” value came out at 0.0592 and the “area with substrate ENLYFQI” value was determined as 0.0553. The “area with substrate ENLYFQK” value worked out at 0.0613, the “area with substrate ENLYFQL” value was 0.0672, the “area with substrate ENLYFQM” value came out at 0.0575 and the “area with substrate ENLYFQN” value came out at 0.0606. Further, the “area with substrate ENLYFQP” value worked out at 0.0594, the “area with substrate ENLYFQR” value amounted to 0.0686, the “area with substrate ENLYFQS” value is 0.0598 and the “area with substrate ENLYFQT” value turned out to be 0.0514. Also, the “area with substrate ENLYFQV” value amounted to 0.0807, the “area with substrate ENLYFQW” value worked out at 0.0528 and the “area with substrate ENLYFQY” value is 0.0436.

For the variant MGESLFKGPRDYNPISSSICHLTNESDGHTTSLYGIGFGPFIITNKHLFRRNNGTLVVQSLHGVFKVKDTTTLQQHLVDGRDMIIIRMPKDFPPFPQKLKFREAQREERICLVTTNFQTKSMSSMVSDTSCTFPSGDGIFWKHWIQTKDGQCGSPLVSTRDGFIVGIHSASNFTNTNNYFTSVPKNFMELLTNQEAQQWVSGWRLNADSVLWGGHKVFMVKPEEPFQPVKEATQL [P104A], the “area with substrate ENLYFQC” value turned out to be 0.0941, the “area with substrate ENLYFQE” value stood at 0.0628, the “area with substrate ENLYFQL” value turned out to be 0.0483 and the “area with substrate ENLYFQN” value stood at 0.0879. Further, the “area with substrate ENLYFQP” value was determined as 0.0702, the “area with substrate ENLYFQQ” value is 0.0876, the “area with substrate ENLYFQS” value stood at 0.101 and the “area with substrate ENLYFQT” value stood at 0.0573. Moreover, the “area with substrate ENLYFQV” value came out at 0.065, the “area with substrate ENLYFQW” value came to 0.0568 and the “area with substrate ENLYFQY” value was found to be 0.0894.

With MGESLFKGPRDYNPISSSICHLTNESDGHTTSLYGIGFGPFIITNKHLFRRNNGTLVVQSLHGVFKVKDTTTLQQHLVDGRDMIIIRMPKDFPPFPQKLKFREKQREERICLVTTNFQTKSMSSMVSDTSCTFPSGDGIFWKHWIQTKDGQCGSPLVSTRDGFIVGIHSASNFTNTNNYFTSVPKNFMELLTNQEAQQWVSGWRLNADSVLWGGHKVFMVKPEEPFQPVKEATQL [P104K], the “area with substrate ENLYFQC” value turned out to be 0.0403, the “area with substrate ENLYFQN” value turned out to be 0.0464, the “area with substrate ENLYFQP” value is 0.0759 and the “area with substrate ENLYFQR” value came to 0.0403. In addition, the “area with substrate ENLYFQS” value worked out at 0.0564, the “area with substrate ENLYFQW” value turned out to be 0.0423 and the “area with substrate ENLYFQY” value turned out to be 0.0404.
